At least one compound was matched to its structure with a doubt left. Numbered stars: 1 amine (or outer) side, 2 acyl side, 3 side chain; on linkers, the order of the positions; unused ones are H or OH. Bridge positions count the residues as written; N and C are the ends. Square brackets hold non-standard residues; d marks the D form. Side chains are listed from the residue outwards. Peptide text beside a SMILES is read from it. * marks the point of attachment. Acetyl(4-DOTA-piperazinyl) = O=C(O)CN1CCN(CC(=O)O)CCN(CC(=O)N2CCN(CC(=O)*)CC2)CCN(CC(=O)O)CC1; DOTA = O=C(O)CN1CCN(CC(=O)O)CCN(CC(=O)*)CCN(CC(=O)O)CC1; γGlu = O=C(O)[C@H](CCC(=O)[*:2])N[*:1]; βAsp = O=C(O)[C@H](CC(=O)[*:2])N[*:1]; mXylylene = c1cc(C[*:1])cc(C[*:2])c1; Ethylenediamine = C(CN[*:2])N[*:1]; Cha = N[C@@H](CC1CCCCC1)C(=O)O; Decanoyl = CCCCCCCCCC(=O)*; Aze = O=C(O)[C@@H]1CCN1; Dab = NCC[C@H](N)C(=O)O; Dap = NC[C@H](N)C(=O)O; CO = O=C([*:1])[*:2]; NHBu = CCCCN*
Columns and labels:
[1] = biological target: T1, fibroblast activation protein (FAP) (Homo sapiens, UniProt Q12884); test: Protease inhibition selectivity assay (fluorogenic substrate Z-Gly-Pro-AMC), FAP; format: biochemical; conditions: recombinant human FAP […], pH 7.5
T1 sequence (Q12884 1-760): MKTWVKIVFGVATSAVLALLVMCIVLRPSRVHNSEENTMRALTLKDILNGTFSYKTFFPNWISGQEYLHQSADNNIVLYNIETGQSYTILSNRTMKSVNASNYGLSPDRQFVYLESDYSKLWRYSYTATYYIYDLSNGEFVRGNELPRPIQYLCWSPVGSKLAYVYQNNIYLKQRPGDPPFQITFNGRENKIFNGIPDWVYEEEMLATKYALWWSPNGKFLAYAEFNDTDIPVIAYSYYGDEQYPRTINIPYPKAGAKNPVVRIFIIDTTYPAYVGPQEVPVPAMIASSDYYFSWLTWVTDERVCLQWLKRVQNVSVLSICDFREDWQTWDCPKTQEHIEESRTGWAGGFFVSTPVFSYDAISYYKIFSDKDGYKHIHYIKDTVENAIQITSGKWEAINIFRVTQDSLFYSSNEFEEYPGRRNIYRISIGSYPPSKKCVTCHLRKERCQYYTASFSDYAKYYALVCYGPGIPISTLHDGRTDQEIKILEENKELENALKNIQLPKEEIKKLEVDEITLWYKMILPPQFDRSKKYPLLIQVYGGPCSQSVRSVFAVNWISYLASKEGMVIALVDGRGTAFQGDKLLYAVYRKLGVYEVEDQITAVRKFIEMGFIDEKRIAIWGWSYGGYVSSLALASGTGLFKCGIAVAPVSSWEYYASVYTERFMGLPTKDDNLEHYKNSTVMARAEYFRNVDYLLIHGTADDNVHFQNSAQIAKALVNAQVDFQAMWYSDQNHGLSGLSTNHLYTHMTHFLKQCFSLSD
Description: (§1) The specificity of the synthesized compounds for recombinant human dipeptidyl peptidase IV (DPPIV), fibroblast activation protein (FAP), or prolyl oligopeptidase (PREP) was expressed by their half-maximal inhibitory concentration (IC50) against the proteases. The specific steps were as follows: • 1) The synthesized compound was dissolved in DMSO to a final concentration of 100 mM. • a) For FAP assay: the test compound was diluted to a 1 mM solution using a buffer of 50 mM Tris, 140 mM NaCl at pH 7.5; • b) For DPPIV assay: the test compound was diluted to a 1 mM solution using a 25 mM Tris, 250 mM NaCl buffer at pH 7.5; • c) For PREP assay: the test compound was diluted to a 1 mM solution using a 140 mM NaCl buffer at pH 8.0. • 2) The prepared 1 mM test compound solutions were each serially diluted (1:10) with the corresponding buffers described above into one row of a 96-well plate. • 3) The substrate was prepared as a DMSO stock solution (FAP and PREP: 2.5 mM Z-Gly-Pro-AMC (VWR, Cat. No. 1-1145.0050BA) in DMSO; DPPIV: 100 mM Gly-Pro-AMC (VWR, Cat. No. 100042-646) in DMSO), and the stock solution of the substrate was subsequently diluted 20-fold using the corresponding buffer described above. • 4) The enzyme was diluted into an appropriate assay buffer. The final concentrations of DPPIV, FAP, and PREP enzymes should be 0.1, 1.2, and 0.6 nM, respectively. 180 µL were added to each well of columns 2-10 as required. Column 1 (A, B, C) was prepared using 200 µL of an appropriate analysis buffer as a control. Column 1 (D, E, F, G, H) was prepared with 20 µL of an appropriate assay buffer and 180 µL of the enzyme as the inhibitor-free control. • 5) Where appropriate, 20 µL of the test compound was added from the dilution plate prepared in step 2 to columns 2-10 of the assay plate. Each sample should be tested in triplicate. It was incubated at room temperature for 10 minutes, with the plate being shaken for the first two minutes. • 6) 10 µL of the 20x substrate prepared in step 3 was added to each well and incubated at room temperature for 15 minutes, with the plate being shaken for the first two minutes. • 7) Fluorescence was read at λex:380 and λem:460.

[2] = biological target: T2, prolyl oligopeptidase (PREP) (Homo sapiens, UniProt P48147); test: Protease inhibition selectivity assay (fluorogenic substrate Z-Gly-Pro-AMC), PREP; format: biochemical; conditions: recombinant human PREP 0.6 nM, pH 8.0
T2 sequence (P48147 1-710): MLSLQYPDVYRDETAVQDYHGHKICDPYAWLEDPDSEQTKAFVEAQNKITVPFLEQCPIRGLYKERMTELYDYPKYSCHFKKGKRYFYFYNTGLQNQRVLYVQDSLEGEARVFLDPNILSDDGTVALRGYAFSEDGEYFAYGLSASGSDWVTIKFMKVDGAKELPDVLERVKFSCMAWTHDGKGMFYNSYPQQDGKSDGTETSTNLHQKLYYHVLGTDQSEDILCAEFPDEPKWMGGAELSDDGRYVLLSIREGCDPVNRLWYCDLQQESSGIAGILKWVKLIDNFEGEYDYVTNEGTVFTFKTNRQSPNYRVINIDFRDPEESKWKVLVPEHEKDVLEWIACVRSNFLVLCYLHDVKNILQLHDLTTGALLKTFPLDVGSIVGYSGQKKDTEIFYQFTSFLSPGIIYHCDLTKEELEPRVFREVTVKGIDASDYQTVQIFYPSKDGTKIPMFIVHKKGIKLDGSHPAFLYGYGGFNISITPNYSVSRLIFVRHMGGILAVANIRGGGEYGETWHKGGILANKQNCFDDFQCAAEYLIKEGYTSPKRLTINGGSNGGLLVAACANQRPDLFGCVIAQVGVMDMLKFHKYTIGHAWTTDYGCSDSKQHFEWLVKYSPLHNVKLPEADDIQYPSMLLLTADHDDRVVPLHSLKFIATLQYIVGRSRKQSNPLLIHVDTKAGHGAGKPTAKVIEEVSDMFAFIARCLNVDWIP
Description: as §1

FAP protein = biological target: T3, FAP protein (Homo sapiens, UniProt Q12884); test: Biacore (SPR) test of compound affinity to FAP protein; conditions: Biacore 8K, SA chip, 15 °C, single cycle, 1:1 binding model; pKD = -LogKD
T3 construct: purchased Sinobiological
T3 sequence (Q12884 1-760): T1 sequence (Q12884 1-760)
Description: The Biacore 8K (Cytiva) instrument was used to detect ligand binding of the FAP protein (Sinobiological). FAP protein was captured on the SA chip. Prior to ligand immobilization (flow paths 1 and 2, flow rate of 10 µL/min), FAP protein (10 µg/mL, flow rate of 5 µL/min, injection time of 600 s) was immobilized on flow path 2 using running buffer. The sensor surface was conditioned by injecting 1M NaCl three consecutive times in 50 mM NaOH. After each ligand injection, additional cleaning was performed using isopropanol in 1M NaCl and 50 mM NaOH (flow path 1 and 2, flow rate of 10 µL/min, injection time of 60 s).
The tested compound was dissolved in 100% dimethyl sulfoxide and diluted to 10 mM, then diluted in the assay buffer (PBS, pH 7.4, 1 mM TCEP ([…]), 0.05% P20, 2% dimethyl sulfoxide) to an appropriate maximum concentration. The analyte was run under the following conditions: analysis temperature of 15 °C, analysis step = all set to LMW kinetics; cycle type = single cycle (contact time of 90 s, dissociation time of 1800 s, flow rate of 30 µL/min, flow channels 1 and 2); channel detection = 2-1. Data was evaluated using the Biacore Insight Evaluation Software, and the data were fitted to a 1:1 binding model.
The Biacore results are shown in Table 2 below: pKD = -LogKD, where KD is the binding affinity of the compound to the FAP protein as measured by Biacore.

[3] = biological target: dipeptidyl peptidase IV (DPPIV) (Homo sapiens, UniProt P27487); test: Protease inhibition selectivity assay (fluorogenic substrate Gly-Pro-AMC), DPPIV; format: biochemical; conditions: recombinant human DPPIV 0.1 nM, pH 7.5
Chain of dipeptidyl peptidase IV (DPPIV) (P27487 whole entry): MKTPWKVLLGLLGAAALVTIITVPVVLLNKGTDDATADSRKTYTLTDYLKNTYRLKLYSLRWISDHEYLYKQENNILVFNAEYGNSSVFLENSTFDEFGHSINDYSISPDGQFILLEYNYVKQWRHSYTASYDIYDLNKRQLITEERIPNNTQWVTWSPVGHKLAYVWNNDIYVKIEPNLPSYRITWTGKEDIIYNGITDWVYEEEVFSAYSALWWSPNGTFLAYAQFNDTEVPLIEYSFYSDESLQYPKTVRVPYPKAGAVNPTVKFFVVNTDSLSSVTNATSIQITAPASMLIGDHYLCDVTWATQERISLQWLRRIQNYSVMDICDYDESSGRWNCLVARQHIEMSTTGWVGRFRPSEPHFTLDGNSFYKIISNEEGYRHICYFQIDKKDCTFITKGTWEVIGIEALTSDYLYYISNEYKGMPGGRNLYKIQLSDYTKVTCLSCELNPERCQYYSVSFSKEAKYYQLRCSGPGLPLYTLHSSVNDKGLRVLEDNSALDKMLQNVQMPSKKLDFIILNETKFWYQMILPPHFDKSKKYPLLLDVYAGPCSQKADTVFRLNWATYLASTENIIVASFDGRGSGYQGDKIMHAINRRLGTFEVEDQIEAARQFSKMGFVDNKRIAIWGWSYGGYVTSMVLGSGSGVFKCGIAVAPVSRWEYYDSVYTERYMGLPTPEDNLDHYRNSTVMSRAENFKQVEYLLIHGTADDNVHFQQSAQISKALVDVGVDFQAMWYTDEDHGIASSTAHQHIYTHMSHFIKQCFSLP
Description: as §1

Compound | pIC50 (FAP) [1] | pIC50 (PREP) [2] | pKD (FAP) (FAP protein) | pIC50 (DPPIV) [3]
CCCCCC(=O)N[C@H]1CSCc2cccc(c2)CSC[C@@H](C(=O)N[C@@H](CCC(=O)NCCNC(=O)CN2CCN(CC(=O)O)CCN(CC(=O)O)CCN(CC(=O)O)CC2)C(=O)O)NC(=O)[C@H](Cc2ccccc2)NC(=O)[C@H](CCC(N)=O)NC(=O)[C@H]([C@@H](C)O)NC(=O)[C@@H]2CCCN2C(=O)[C@@H]2CCN2C1=O [JHDC23, Hex[Cys(3MeBn)-hhy39-Pro-Thr-Gln-Phe-Cys]-Glu-(EDA-DOTA)-OH] | A (A: pIC50 >8) | D (D: pIC50<6) | B (B: 7<pKD<8) | D (D: pIC50<6)
CCCCNC(=O)N[C@H]1CSCc2cccc(c2)CSC[C@@H](C(=O)N[C@@H](CCC(=O)NCCNC(=O)CN2CCN(CC(=O)O)CCN(CC(=O)O)CCN(CC(=O)O)CC2)C(=O)O)NC(=O)[C@H](Cc2ccccc2)NC(=O)[C@H](CCC(N)=O)NC(=O)[C@H]([C@@H](C)O)NC(=O)[C@@H]2CCCN2C(=O)[C@@H]2CCN2C1=O [JHDC24, nBu-urea-[Cys(3MeBn)-hhy39-Pro-Thr-Gln-Phe-Cys]-Glu-(EDA-DOTA)-OH] | A (A: pIC50 >8) | D (D: pIC50<6) | B (B: 7<pKD<8) | D (D: pIC50<6)
CCCCCC(=O)N[C@H]1CSCc2cccc(c2)CSC[C@@H](C(=O)N[C@H](CC(=O)O)CC(=O)NCCNC(=O)CN2CCN(CC(=O)O)CCN(CC(=O)O)CCN(CC(=O)O)CC2)NC(=O)[C@H](Cc2ccccc2)NC(=O)[C@H](CCC(N)=O)NC(=O)[C@H]([C@@H](C)O)NC(=O)[C@@H]2CCCN2C(=O)[C@@H]2CCN2C1=O [JHDC37, Hex-[Cys(3MeBn)-hhy39-Pro-Thr-Gln-Phe-Cys]-β-Glu-(EDA-DOTA)-OH] | A (A: pIC50 >8) | D (D: pIC50<6) | B (B: 7<pKD<8) | D (D: pIC50<6)
CCCCNC(=O)N[C@H]1CSCc2cccc(c2)CSC[C@@H](C(=O)N[C@@H](CNC(=O)CN2CCN(C(=O)CN3CCN(CC(=O)O)CCN(CC(=O)O)CCN(CC(=O)O)CC3)CC2)C(=O)O)NC(=O)[C@H](CC2CCCCC2)NC(=O)[C@H](CCC(N)=O)NC(=O)[C@H]([C@@H](C)O)NC(=O)[C@@H]2CCCN2C(=O)[C@@H]2CCN2C1=O [JHDC47, nBu-urea-[Cys(3MeBn)-hhy39-Pro-Thr-Gln-hhy34-Cys]-DAPA-(Ac-piperazine-DOTA)-OH] ({NHBu-CO}-C[Aze]PTQ[Cha]C[Dap](Acetyl(4-DOTA-piperazinyl))-OH; linker 1-7 via mXylylene) | A (A: pIC50 >8) | D (D: pIC50<6) | A (A: pKD >8) | D (D: pIC50<6)
CCCCCCCCCC(=O)N[C@H]1CSCc2cccc(c2)CSC[C@@H](C(=O)N[C@@H](CCC(=O)N[C@@H](CCCNC(=N)N)C(=O)NCC(=O)N[C@@H](CC(=O)NCCNC(=O)CN2CCN(CC(=O)O)CCN(CC(=O)O)CCN(CC(=O)O)CC2)C(=O)O)C(=O)O)NC(=O)[C@H](Cc2ccccc2)NC(=O)[C@H](CCC(N)=O)NC(=O)[C@H]([C@@H](C)O)NC(=O)[C@@H]2CCCN2C(=O)[C@@H]2CCN2C1=O [JHDC 18, Dec[Cys(3MeBn)-hhy39-Pro-Thr-Gln-Phe-Cys]-Glu-(Arg-Gly-Asp(EDA-DOTA))-OH] (Decanoyl-C[Aze]PTQFC[γGlu]RG[βAsp]-{Ethylenediamine-DOTA}; linker 1-7 via mXylylene) |  |  | B (B: 7<pKD<8) | 
CCCCCCCCCC(=O)N[C@H]1CSCc2cccc(c2)CSC[C@@H](C(=O)N[C@@H](CCC(=O)N[C@@H](CCCNC(=N)N)C(=O)NCC(=O)N[C@@H](CC(=O)NCCNC(=O)CN2CCN(CC(=O)O)CCN(CC(=O)O)CCN(CC(=O)O)CC2)C(=O)O)C(=O)O)NC(=O)[C@H](CC2CCCCC2)NC(=O)[C@H](CCC(N)=O)NC(=O)[C@H]([C@@H](C)O)NC(=O)[C@@H]2CCCN2C(=O)[C@@H]2CCN2C1=O [JHDC 19, Dec[Cys(3MeBn)-hhy39-Pro-Thr-Gln-hhy34-Cys]-Glu-(Arg-Gly-Asp(EDA-DOTA ))-OH] (Decanoyl-C[Aze]PTQ[Cha]C[γGlu]RG[βAsp]-{Ethylenediamine-DOTA}; linker 1-7 via mXylylene) |  |  | B (B: 7<pKD<8) | 
CCCCNC(=O)N[C@H]1CSCc2cccc(c2)CSC[C@@H](C(=O)N[C@@H](CCNC(=O)CNC(=O)CN2CCN(CC(=O)O)CCN(CC(=O)O)CCN(CC(=O)O)CC2)C(=O)O)NC(=O)[C@H](CC2CCCCC2)NC(=O)[C@H](CCC(N)=O)NC(=O)[C@H]([C@@H](C)O)NC(=O)[C@@H]2CCCN2C(=O)[C@@H]2CCN2C1=O [^175Lu-JHDC56] ({NHBu-CO}-C[Aze]PTQ[Cha]C[Dab]([Gly-DOTA])-OH; linker 1-7 via mXylylene) |  |  | B (B: 7<pKD<8) | 

From EP4692105A1, “CYCLIC POLYPEPTIDE COMPOUND AND USE THEREOF” (Bivision Pharmaceuticals, Inc, priority 2023, dated 2024)
